In PubChem BioAssay AID485344 (National Center for Advancing Translational Sciences (NCATS), 2010):
Screen size: about 340,000 compounds; about 6,900 (2%) were called active. Rule as the data show it: active = inhibition above about 30%; inactive = below that, where a call was filed. The list shows a part of the results, in another mix than the full data. The source gives no active or inactive call for entries shown without one.

Target: D(2) dopamine receptor (Homo sapiens) (UniProt P14416)
Assay: HTS Assay for Allosteric Antagonists of the Human D2 Dopamine Receptor: Primary Screen for Antagonists; also: 0% is about no effect
Settings: HEK293 TREx D2 cells, calcium flux, dopamine EC80; at 10 µM; stronger effect = higher value
Method in brief: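 Tetracycline-induced HEK293 T-REx cells expressing D2 force-coupled to calcium signalling were dye-loaded, exposed to compound for 180 s, then challenged with an EC80 of dopamine; calcium flux was followed kinetically for a further 180 s.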

UniProt P14416, sequence (P14416 whole entry, looked up): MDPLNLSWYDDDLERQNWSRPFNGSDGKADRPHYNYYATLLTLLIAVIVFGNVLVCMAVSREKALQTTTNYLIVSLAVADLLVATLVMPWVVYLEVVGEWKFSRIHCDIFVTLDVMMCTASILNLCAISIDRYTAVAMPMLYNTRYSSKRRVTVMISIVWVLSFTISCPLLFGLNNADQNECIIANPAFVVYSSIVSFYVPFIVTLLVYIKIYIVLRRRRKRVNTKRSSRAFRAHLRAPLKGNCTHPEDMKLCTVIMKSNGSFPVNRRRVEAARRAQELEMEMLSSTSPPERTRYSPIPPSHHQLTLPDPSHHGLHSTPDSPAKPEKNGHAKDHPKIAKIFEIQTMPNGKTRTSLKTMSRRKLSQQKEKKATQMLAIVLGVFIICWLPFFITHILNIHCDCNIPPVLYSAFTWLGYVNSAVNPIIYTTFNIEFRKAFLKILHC

Row | Structure (SMILES) | inhibition
1 | Cc1ccc(CN2CCN(Cc3cccc4c3OCO4)CC2CCO)cc1 (stereo unspecified) | active: 88.2%
2 | CCOc1ccccc1C(=O)NC(C)c1ccc2c(c1)OCO2 (stereo unspecified) | active: 39.9%
3 | CCc1ccc(CN2CCc3nc(Nc4ccccc4)ncc3C2)cc1 | 1.61%
4 | Cc1cccc2sc(N(Cc3cccnc3)C(=O)c3cccs3)nc12 | -13.4%
5 | CCOC(=O)c1c(C)[nH]c(CCC(=O)NCc2ccc(F)cc2)c1C | 5.89%
6 | CC(=O)Nc1ccc(NC(=O)c2cc3sccc3n2Cc2ccc(F)cc2)cc1 | -6.65%
7 | O=C(COC(=O)c1ccc(Cl)c(S(=O)(=O)N2CCCCC2)c1)NCC1CCCCC1 | active: 43.8%
8 | COc1cc2[nH]c(=O)n(CCCC(=O)NCc3ccc(Cl)cc3)c(=O)c2cc1OC | -4.83%
9 | Cc1ccc(NC(=O)C(=O)NCC(c2cccnc2)N2CCN(c3ccccc3F)CC2)cc1Cl (stereo unspecified) | -21.4%
10 | CCc1ccccc1Nc1nn2c(=O)c3ccc(C(=O)NC(C)c4ccccc4)cc3nc2s1 (stereo unspecified) | 6.52%
11 | COc1ccccc1NC(=O)c1sc2nc(C)c(C(=O)Nc3ccc(C)cc3C)c(-c3cccs3)c2c1N | -10.7%
12 | CCOC(=O)c1cc(-c2ccccc2)n(CCCC(=O)Nc2cccc(C)c2C)c1C | -2.78%
13 | Cc1[nH]c(=O)[nH]c(=O)c1S(=O)(=O)N1CCN(c2ccccc2Cl)CC1 | 0.205%
14 | O=C(O)CCn1c(=O)c2cccn2c2cccnc21 | 8.47%
15 | COC(=O)c1ccc(NC(=O)CN2C(=O)CCc3cc(S(=O)(=O)N4CCCCC4)ccc32)cc1 | -26.5%
16 | COc1ccc(CCNC(=O)c2n[nH]c3ccccc23)cc1 | active: 41.8%
17 | O=C1CC(c2nnc(Cc3ccc(F)cc3Cl)o2)CN1c1ccccc1 (stereo unspecified) | -16.2%
18 | COC(=O)c1ccc(NC(=O)CSCc2ccccc2C)cc1 | active: 34.6%
19 | CC(C)(C)c1ccc(OCC(O)CN2CCN(c3ccccn3)CC2)cc1 (stereo unspecified) | active: 86.6%
20 | O=C(CN1C(=O)COc2ccc(S(=O)(=O)N3CCCC3)cc21)N1CCN(c2ccc(F)cc2)CC1 | -11.9%
21 | Cc1cccc(-n2c(Cc3ccccc3)nnc2SCc2nc(-c3cccs3)no2)c1 | 2.76%
22 | O=C1c2[nH]nc(-c3ccccc3O)c2C(c2ccccc2F)N1Cc1cccnc1 (stereo unspecified) | 17.3%
23 | COCCNc1ccc(-c2nc(-c3ccco3)no2)cc1[N+](=O)[O-] | 10.5%
24 | Cc1cccc(Nc2nnc(-c3ccc(C)c(S(=O)(=O)NCC4CCCO4)c3)c3ccccc23)c1 (stereo unspecified) | -18.1%

Row | Structure (SMILES) | inhibition
25 | CCOC(=O)c1ccc(N2C(=O)c3n[nH]c(-c4ccco4)c3C2c2ccc(O)c(OCC)c2)cc1 (stereo unspecified) | 20.8%
26 | Cc1cc(C)nc(NC(=NCCc2c[nH]c3ccc(Cl)cc23)NC(=O)c2ccccc2C)n1 | -2.67%
27 | COC(=O)C1=C(C)NC(=O)C1(NC(=O)c1cc(OC)c(OC)c(OC)c1)C(F)(F)F (stereo unspecified) | -1.86%
28 | CCOC(=O)c1c(NC(=O)c2ccc(S(=O)(=O)N3CCC(C)CC3)cc2)sc2c1CCN(CC)C2 | 11.5%
29 | CCOC(=O)c1cc(C)n(CC2CCC(C(=O)Nc3cccc(C)c3)CC2)c1C (stereo unspecified) | 12.8%
30 | C=Cc1ccc(Cn2nc(-c3ccc(C)cc3)ccc2=O)cc1 | 12.3%
31 | Cc1cccc(-n2cc(-c3ccccc3)c3c(NC4CCCC4)ncnc32)c1 | 5.06%
32 | CCOC(=O)c1c(S(=O)(=O)N2CCCC(C(=O)Nc3cc(C)ccn3)C2)c(C)n(C)c1C (stereo unspecified) | -2.5%
33 | CCOC(=O)c1ccc(NC(=O)CCC(=O)N2Cc3ccccc3Oc3ncccc32)cc1 | 9.02%
34 | COc1ccc(OC)c(NC(=O)C2CCN(S(=O)(=O)c3ccc4c(c3)CCCC(=O)N4)CC2)c1 | 7.03%
35 | CC(=O)c1ccc(NC(=O)CSc2ccc(-c3cccs3)nn2)cc1 | 4.37%
36 | CCOc1ccc(-c2nc(SCC(=O)c3ccccc3)n[nH]2)cc1 | 0.233%
37 | CN(C)c1ccc(CNC(=O)c2cnc3sc(N4CCOCC4)nn3c2=O)cc1 | 3.7%
38 | Brc1cccc(-c2nnc(CN3CCN(c4ccccn4)CC3)o2)c1 | 0.709%
39 | Cc1ccc(S(=O)(=O)Cc2ccc(C(=O)NCCc3ccc(Cl)cc3)o2)cc1 | -6.86%
40 | O=C(Nc1ccc(C(F)(F)F)cc1Cl)c1ccc(Cn2cc(Br)cn2)o1 | active: 37.2%
41 | COCCCNC(=O)c1cnc2c(-c3ccc(F)cc3)c(C)nn2c1C | 17.8%
42 | CCOC(=O)C1CCN(C(c2cccc(F)c2)c2c(O)cc(C)n(Cc3ccco3)c2=O)CC1 (stereo unspecified) | 5.12%
43 | COc1ccc(-c2noc(N(c3cccc(Cl)c3)c3nc(-c4ccc(OC)c(OC)c4)no3)n2)cc1OC | -2.84%
44 | CCOc1cccc(C(=O)N2CCC(c3nc4ccccc4s3)CC2)c1 | 10.5%
45 | Cn1nc(-c2ccccc2F)c2cc(C(=O)NCCc3ccc(Cl)cc3)sc21 | -5.96%
46 | O=C(c1ccc(Br)cc1)N1CCN(CCc2ccncc2)CC1 | -17.1%
47 | O=C(COC(=O)c1cccnc1Cl)c1cccc(Cl)c1 | active: 69.1%
48 | CC(=O)NC1CC(=O)N(c2ccc3c(c2)OCCO3)C1 (stereo unspecified) | 0.924%

Row | Structure (SMILES) | inhibition
49 | Cc1ccc(-c2nc3cc(Cl)ccc3o2)cc1NC(=O)c1cc([N+](=O)[O-])ccc1N1CCOCC1 | 15.7%
50 | CCC(=O)N1CCc2cc(Br)cc(S(=O)(=O)N3CCC(C(=O)Nc4ccccc4CC)CC3)c21 | 3.28%
51 | COc1cccc(C2CC(=O)Nc3cc4c(cc32)OCO4)c1OC(C)C (stereo unspecified) | 7.17%
52 | Cc1nc(-c2ccccc2)sc1-c1ccc(SCC(=O)Nc2cccc(C(F)(F)F)c2)nn1 | -7.11%
53 | CC(C)Oc1ccc(CNC(=O)C2CCN(c3nc4ccccc4nc3C(F)(F)F)CC2)cc1 | 8.41%
54 | CCC1Oc2ccc(C)cc2N(CC(=O)NCc2ccc(OC)cc2)C1=O (stereo unspecified) | 23.9%
55 | CCCCN1C(=O)c2[nH]nc(-c3ccccc3O)c2C1c1ccc(C(C)(C)C)cc1 (stereo unspecified) | 4.19%
56 | CCCn1c2ccccc2c2cnn(CC(=O)NCc3ccccc3Cl)c(=O)c21 | 24.2%
57 | O=C(Nc1cccc(Cl)c1)c1ccc2nc(CCc3ccccc3)oc2c1 | 0.344%
58 | O=c1oc2ccccc2cc1-c1nnc(Nc2ccc(Cl)cc2Cl)s1 | -3.88%
59 | CCOC(=O)c1c(C)n(S(=O)(=O)c2ccc(C)cc2C)c2ccc(NS(=O)(=O)c3ccc(C)cc3C)cc12 | -5.68%
60 | Cc1ccc(C2=Nc3ccccc3N(CC(=O)Nc3ccccc3F)C(=O)C2)cc1C | 20.3%
61 | COc1ccccc1Nc1sc(C(=O)c2ccc3c(c2)OCO3)c(N)c1S(=O)(=O)c1ccccc1 | -15.6%
62 | CCc1nn(CCCC(=O)N2CCN(c3cc(Cl)ccc3C)CC2)c(=O)c2cc3occc3n12 | -5.79%
63 | Fc1ccccc1N1CCN(Cc2cccnc2)CC1 | active: 67.7%
64 | COc1ccc(CC(=O)NC2CC(=O)N(c3cccc(F)c3)C2)cc1OC (stereo unspecified) | -4.41%
65 | Cc1cc(C)nc(/N=C(\N)Nc2cccc(OCc3ccccc3)c2)n1 | active: 62.7%
66 | CC(=O)N1c2ccc(S(=O)(=O)N3CCCCCC3)cc2CC1C(=O)NC(C)C (stereo unspecified) | 2.1%
67 | CCOC(=O)c1c(C)sc(-c2c(-c3ccc4c(c3)OCCO4)[nH]c3c2c(=O)n(C)c(=O)n3C)c1O | 1.15%
68 | O=C(CN1CCC(O)(c2cccc(F)c2)CC1)NCCc1c[nH]c2ccccc12 | active: 44.8%
69 | CCOC(=O)N1CCc2c(sc3c2c(=O)n(Cc2ccccc2)c(=O)n3Cc2cc(C)ccc2C)C1 | 0.218%
70 | Cc1nnc(C)c2c(C)n(-c3ccc4ncccc4c3)c(C)c12 | active: 32.4%
71 | CC(C)CC(=O)Nc1nc2c(s1)CC(C(C)(C)C)CC2 (stereo unspecified) | 16.8%
72 | CC(NCC(=O)Nc1cc(S(=O)(=O)N2CCOCC2)ccc1N1CCOCC1)c1ccco1 (stereo unspecified) | active: 63.6%

Row | Structure (SMILES) | inhibition
73 | CCOc1ccc(CNC(=O)c2cccc(NC(=O)N3CCSc4ncccc43)c2)cc1 | 13.7%
74 | CCn1c(C(=O)N2CCC(C(=O)N3CCN(c4cc(C)ccc4C)CC3)CC2)cc2sccc21 | 25.3%
75 | CC(C)Cn1cc(NC(=O)Nc2cccc(C(F)(F)F)c2)c2ccccc2c1=O | -12.5%
76 | CC(=O)N1CCc2cc(S(=O)(=O)NC(CC(C)C)C(=O)Nc3ccc(C(C)C)cc3)ccc21 (stereo unspecified) | 2.63%
77 | Cc1c(-c2nnc(SCC(=O)Nc3ccccc3F)o2)nnn1-c1ccc(F)cc1 | 1.66%
78 | COc1ccc(CNC(=O)CCc2cn(C)c3ccccc23)cc1 | -0.697%
79 | COc1ccc(C(=O)NC2CC(=O)N(c3ccc4c(c3)OCCO4)C2)cc1 (stereo unspecified) | 3.92%
80 | COc1cccc(N2CCN(S(=O)(=O)c3cn(C)c(C)n3)CC2)c1 | 8.22%
81 | COCCCNCCCCOc1ccc(Br)cc1Cl | active: 64.9%
82 | Cc1cc(C)c2cc(C(=O)Nc3ccc(C)c(F)c3)[nH]c2c1 | active: 39%
83 | CCCNC(=O)c1cnn2c(C)c(Cc3c(C)cc(C)cc3C)c(C)nc12 | -4.63%
84 | COc1ccc(NC(=O)c2cc3nc(-c4ccc(Cl)c(Cl)c4)cc(C(F)(F)F)n3n2)c(OC)c1 | -2.69%
85 | O=C(c1cc2c(s1)CCCC2)N1CCN(Cc2ccc3c(c2)OCO3)CC1 | active: 74.7%
86 | COc1ccc(-n2nc3c(N4CCCC(C(=O)NCc5ccc(C)cc5)C4)nnc(C)c3c2C)cc1 (stereo unspecified) | -13.7%
87 | Cc1sc2ncn(CC(=O)Nc3ccc(F)cc3F)c(=O)c2c1S(=O)(=O)N1CCC(C)CC1 | -14%
88 | CCOc1ccccc1NC(=O)N1CCC(n2c(C)nc3cccnc32)CC1 | 15.9%
89 | CCC(C)Nc1ncnc2c1cnn2-c1ccc(F)cc1 (stereo unspecified) | -3.56%
90 | COc1ccc(NS(=O)(=O)c2ccc3nc(-c4ccccc4)[nH]c3c2)cc1 | 6.79%
91 | COc1ccc(NC(=O)CCCn2nc(C)c3sc4ccccc4c3c2=O)cc1 | -10.9%
92 | COc1ccc(S(=O)(=O)NCCSc2nnnn2-c2ccccc2)cc1 | -17.2%
93 | COc1ccc(CN2CCN(c3ccc(F)cc3)CC2)c(OC)c1OC | active: 33.3%
94 | CCN(Cc1ccccc1)S(=O)(=O)c1ccc(-c2coc(C)n2)cc1 | -4.89%
95 | COc1ccc(-c2nc(CSCC(=O)N3CCN(c4ccc(F)cc4)CC3)c(C)o2)cc1 | -11.1%
96 | O=C(Cn1ncc2c3ccccc3n(Cc3ccc(F)cc3)c2c1=O)NCc1cccs1 | -0.576%
